{"source": "PubChem BioAssay AID1347071", "about": "(National Center for Advancing Translational Sciences (NCATS), 2019)", "note": "Screen size: about 410,000 compounds; about 260 (0.063%) were called active. This list was built around the results that the source calls inconclusive (neither active nor inactive); the mix of calls is not that of the screen. Calls come from the whole dose curve; as a rule, active = well fitted activation curve with a large enough effect; inconclusive = small, poorly fitted or top-dose-only effect; inactive = no such curve, though single readings can be large or run the other way. No potency is given beside an inconclusive call; the fits are too rough. Potency is the fitted concentration of half-maximal effect; tags give direction and shape of the fitted curve.", "data": [{"experiment": "qHTS for compounds that reverse cellular toxicity of Amyloid beta (A-beta) peptide in yeast: Primary Screen; note: nearly all actives have a fitted effect of over 55% in size", "settings": "yeast expressing A-beta42, growth rescue, OD600, 48 h; growth rescue: at 46.1 µM (top of the series), 0% DMSO, 100% iron-clioquinol control", "method_in_brief": "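Yeast growth medium received pinned compounds, then yeast cells expressing toxic A-beta were added; plates incubated at 30 C for 48 hr. Growth read as absorbance at 600 nm, normalized to DMSO and equimolar FeCl3 plus clioquinol controls.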", "values": [{"molecule": "N/C(=N\\OC(=O)c1ccc(Br)cc1)c1ccccc1", "growth rescue": "inactive: -13.7%"}, {"molecule": "CCOC(=O)c1sc(NC(=O)c2ccc3ncsc3c2)nc1C", "growth rescue": "inconclusive: 61.3% [activator]"}, {"molecule": "Nc1cc(-c2ccc(Br)cc2)nn1Cc1ccccc1", "Potency": "inconclusive [activator, partial curve, poor fit]"}, {"molecule": "Cc1ccccc1NC(=S)N1CCN(c2ccccc2C)CC1", "Potency": "inconclusive [activator, full curve, poor fit]"}, {"molecule": "CCCCN(C1CCS(=O)(=O)C1)S(=O)(=O)c1ccc(C(C)C)cc1", "note": "(stereo not given)", "Potency": "inconclusive [activator, partial curve]"}, {"molecule": "Cc1ccccc1NC(=O)c1sc2nc(N3CCOCC3)c3c(c2c1N)CCCC3", "growth rescue": "inactive: -30.1%"}, {"molecule": "O=C1CC(NS(=O)(=O)c2ccc([N+](=O)[O-])cc2)CN1c1ccc2c(c1)OCCO2", "note": "(stereo not given)", "Potency": "inconclusive [activator, full curve]"}, {"molecule": "O=C(NCCS(=O)(=O)N1CCN(c2ccc(F)cc2)CC1)c1cc(=O)c2ccccc2o1", "growth rescue": "inactive: -4.36%"}, {"molecule": "Cc1cc(C(=O)NNc2ccc(C)c(C)c2)no1", "Potency": "inconclusive [activator, partial curve]"}, {"molecule": "COc1ccc2oc(C(=O)OCC(=O)N3CC(C)CC(C)C3)c(C)c2c1", "note": "(stereo not given)", "growth rescue": "inactive: 9.4%"}, {"molecule": "COc1ccccc1CNC(=O)c1csc(Cc2ccc(Cl)cc2)n1", "Potency": "inconclusive [activator, partial curve, poor fit]"}, {"molecule": "CCN(CCO)c1ncnc2c1sc1nc(CC(C)C)c3c(c12)CC(C)(C)OC3", "growth rescue": "inactive: 16.2%"}, {"molecule": "O=[N+]([O-])c1ccc(C=NN2CCOCC2)s1", "growth rescue": "inactive: -33.3%"}, {"molecule": "Cc1ccc(-n2c(-c3ccccc3)n[nH]c2=S)c(C)c1", "Potency": "inconclusive [activator, full curve]"}, {"molecule": "Cc1cccc(NC(=S)NC(=O)Cc2ccccc2)c1C", "Potency": "active: 7.94 µM"}, {"molecule": "COc1cccc(CNC(=O)COc2ccc(C(=O)c3ccccc3)cc2)c1", "Potency": "inconclusive [activator, single point]"}, {"molecule": "COc1cccc(/C=C2/C(=O)NN(c3ccc(C)c(C)c3)C2=O)c1", "Potency": "inconclusive [activator, full curve]"}, {"molecule": "OCC1CCCCN1C(=S)Nc1ccc(Cl)cc1Cl", "note": "(stereo not given)", "Potency": "inconclusive [activator, partial curve, poor fit]"}, {"molecule": "CCOC(=O)c1cc2occc2n1CC(=O)N1CCCc2ccccc21", "Potency": "inconclusive [activator, partial curve]"}, {"molecule": "CCOC(=O)c1ccc(NC(=O)C(CC)Sc2nc3ncccc3[nH]2)cc1", "note": "(stereo not given)", "growth rescue": "inactive: -2.09%"}, {"molecule": "S=C(NCCc1ccccc1)Nc1ccc(Br)cc1", "Potency": "inconclusive [activator, partial curve, poor fit]"}, {"molecule": "CC(=O)NC(c1ccc(Cl)cc1Cl)c1ccc2cccnc2c1O", "note": "(stereo not given)", "Potency": "inconclusive [activator, single point]"}, {"molecule": "CCc1nn2c(=O)c(S(=O)(=O)Nc3ccc(OC)c(Cl)c3)c(C)nc2s1", "growth rescue": "inactive: -5.22%"}, {"molecule": "CCOC(=O)CCCCC(=O)c1[nH]c(=O)[nH]c1CSc1nc(-c2ccccc2)c(C#N)c(=O)[nH]1", "growth rescue": "inactive: 9.5%"}, {"molecule": "CC(C)CN(Cc1cc(=O)oc2cc3c(cc12)CCCC3)CC(C)C", "Potency": "inconclusive [activator, partial curve, poor fit]"}, {"molecule": "COc1ccccc1C(=O)NNC(=S)NC(=O)c1cc(OC)c(OC)c(OC)c1", "Potency": "active: 6.31 µM"}, {"molecule": "COc1ccc(-c2nnc(SCC(=O)Oc3c(C)cccc3C)o2)cc1OC", "growth rescue": "inactive: -1.93%"}, {"molecule": "COc1cccc2c1C(=O)c1c(O)c3c(c(O)c1C2=O)C[C@@](O)(C(=O)CO)C[C@@H]3OC1CC(N)C(O)C(C)O1", "note": "(stereo not given in full)", "growth rescue": "inactive: 1.82%"}, {"molecule": "Cc1oc(-c2cccc(Cl)c2)nc1CN1CCCC(C(=O)NCc2ccc(F)cc2)C1", "note": "(stereo not given)", "Potency": "inconclusive [activator, partial curve, poor fit]"}, {"molecule": "O=C(O)C(c1ccccc1)N1C(=O)/C(=C\\c2ccc(-c3ccc(Br)cc3)o2)SC1=S", "note": "(stereo not given)", "growth rescue": "inactive: 2.52%"}, {"molecule": "COc1ccc(-c2cn(CCO)nc2-c2ccc(OC)cc2)cc1", "Potency": "inconclusive [activator, partial curve, poor fit]"}, {"molecule": "NC[C@@H]1O[C@H](C23CC4CC(CC(C4)C2)C3)Cc2c1ccc(O)c2O", "growth rescue": "inactive: -8.22%"}, {"molecule": "CCCOP(=O)(c1ccccc1)c1ccccc1", "Potency": "inconclusive [activator, partial curve, poor fit]"}, {"molecule": "Cc1ccc(-n2ncc(C(=O)NC3CCCC3)c2C2CCN(C(=O)OC(C)(C)C)CC2)c(C)c1", "Potency": "inconclusive [activator, partial curve, poor fit]"}, {"molecule": "CCCc1nc2cc(C)c(Br)c(C)n2c1Cc1ccsc1", "Potency": "inconclusive [activator, single point]"}, {"molecule": "COc1ccc(-c2cc(NC=O)c3ncc(-c4cccc(OC)c4)n3c2)cc1", "growth rescue": "inactive: -14.5%"}, {"molecule": "COc1ccc(C(=O)N/N=C/c2cc3ccccc3[nH]c2=S)cc1", "Potency": "inconclusive [activator, full curve]"}, {"molecule": "Cc1ccc(NC(=S)NCc2ccc3c(c2)OCO3)cc1", "growth rescue": "inactive: 8.96%"}, {"molecule": "O=S(=O)(NC1CCCCC1Oc1ccccc1)c1ccccc1", "note": "(stereo not given)", "Potency": "inconclusive [activator, full curve, poor fit]"}, {"molecule": "Oc1ccccc1CN1CCCN(Cc2ccccc2O)C1", "Potency": "inconclusive [activator, full curve, poor fit]"}, {"molecule": "COc1cc2cc(NC(C)=O)cc(NCc3ccccc3)c2cc1OC", "Potency": "inconclusive [activator, partial curve, poor fit]"}, {"molecule": "c1cc2c3c(cccc3c1)NC1(CCC3(CC1)Nc1cccc4cccc(c14)N3)N2", "Potency": "inconclusive [activator, full curve, poor fit]"}, {"molecule": "O=C(CSc1nc(CCC2CCCC2)nc2ccccc12)NCc1ccc2c(c1)OCO2", "Potency": "inconclusive [activator, single point]"}, {"molecule": "O=S(=O)(Nc1nc(SCc2ccc(Cl)cc2)n[nH]1)c1ccccc1", "Potency": "inconclusive [activator, single point]"}, {"molecule": "CC(=O)NC(CCS(C)(=O)=O)C(=O)Nc1ccccc1Cl", "note": "(stereo not given)", "growth rescue": "inactive: 0.19%"}]}]}
